Experimental data from paper PMC4336329 (PLoS ONE, 2015).
The campaign covered roughly 310,000 compounds. About 14,000 (4.5%) showed an effect of 50% or more. The effect is printed as a negative number. This is one part of the list.

Each compound was assayed against human ether-à-go-go-related gene (hERG) potassium channel (human, UniProt Q12809) (assay: primary screen, population patch clamp on CHO cells stably expressing hERG).
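Note: peak tail current of the secondary pulse compared with the same well before compound.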

human ether-à-go-go-related gene (hERG) potassium channel, sequence (Q12809 whole entry, looked up): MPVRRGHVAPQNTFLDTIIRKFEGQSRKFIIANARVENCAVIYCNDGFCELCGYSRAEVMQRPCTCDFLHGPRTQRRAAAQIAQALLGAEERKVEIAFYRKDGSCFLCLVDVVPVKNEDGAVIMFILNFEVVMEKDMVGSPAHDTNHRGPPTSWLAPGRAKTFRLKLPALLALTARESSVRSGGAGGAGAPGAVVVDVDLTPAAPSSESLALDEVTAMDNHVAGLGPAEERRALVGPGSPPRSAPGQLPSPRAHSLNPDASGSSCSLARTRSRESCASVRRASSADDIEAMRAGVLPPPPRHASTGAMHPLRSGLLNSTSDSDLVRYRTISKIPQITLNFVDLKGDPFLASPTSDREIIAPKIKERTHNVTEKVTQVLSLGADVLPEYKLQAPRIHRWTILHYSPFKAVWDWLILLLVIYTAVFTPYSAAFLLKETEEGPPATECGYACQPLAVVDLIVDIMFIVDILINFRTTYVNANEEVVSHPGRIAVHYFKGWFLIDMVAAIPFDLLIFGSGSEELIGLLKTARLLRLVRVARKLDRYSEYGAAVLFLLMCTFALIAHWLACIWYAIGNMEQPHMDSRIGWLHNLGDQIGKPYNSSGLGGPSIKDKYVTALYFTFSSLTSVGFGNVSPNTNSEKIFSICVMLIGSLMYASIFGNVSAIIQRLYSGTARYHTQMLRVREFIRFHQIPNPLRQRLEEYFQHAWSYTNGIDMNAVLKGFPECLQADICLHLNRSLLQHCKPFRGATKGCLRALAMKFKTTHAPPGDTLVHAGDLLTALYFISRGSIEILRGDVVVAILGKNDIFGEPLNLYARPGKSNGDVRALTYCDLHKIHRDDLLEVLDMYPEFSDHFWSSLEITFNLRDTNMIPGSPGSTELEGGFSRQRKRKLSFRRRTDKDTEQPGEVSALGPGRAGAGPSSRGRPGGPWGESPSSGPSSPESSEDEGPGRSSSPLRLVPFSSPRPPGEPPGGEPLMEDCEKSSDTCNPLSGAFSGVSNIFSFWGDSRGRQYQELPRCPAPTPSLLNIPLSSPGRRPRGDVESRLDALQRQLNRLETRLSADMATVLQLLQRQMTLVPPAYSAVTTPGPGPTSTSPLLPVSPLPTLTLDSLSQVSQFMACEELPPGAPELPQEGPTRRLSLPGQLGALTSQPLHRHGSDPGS

SMILES | hERG current change (%, negative = inhibition) at 10uM
COC(=O)C1=C(c2cc3ccccc3s2)C[C@@H]2CC[C@H]1N2C | -16%
Cc1ccc(CN2C(=O)CCC2C(=O)NCCc2ccccc2)cc1 (centres unmarked) | 7.99%
CC(Sc1nnc(-c2ccc(Cl)cc2)n1C)C(N)=O (centres unmarked) | -5.98%
N=c1oc2ccccc2cc1C(=O)Nc1ccc(F)cc1 | 16.5%
Nc1ccc(Cl)c(S(=O)(=O)Nc2ccc(Cl)cc2)c1 | 17.3%
COc1cc(C(=O)N2CCN(C(=O)c3cccc4ccccc34)CC2)cc(OC)c1OC | -5.14%
Cn1c(=O)[nH]c(=O)c2c1nc(Br)n2CCCSc1nc2ccccc2o1 | -66.8%
CC1=CCC2C(=O)N(c3ccc4ccccc4n3)C(=O)C2C1 (centres unmarked) | -1.37%
COc1cc(/C=C/C(=O)O)cc(S(=O)(=O)NC2CCCC2)c1OC | 10.9%
Cc1ccccc1-c1noc(-c2ccccc2C(=O)N2CCCC2)n1 | -24.9%
Cc1cc(OCC(=O)Nc2sc3c(c2C#N)CC(C)(C)NC3(C)C)c(C(C)C)cc1Cl | 14.3%
Cc1nc(-c2cc(-c3nc(-c4cc(C(F)(F)F)cc(C(F)(F)F)c4)no3)no2)cs1 | 2.06%
CSCSC1=C(C#N)C(c2ccccc2Cl)C(C(C)=O)=C(C)N1 (centres unmarked) | -6.02%
CC(=O)N(C)/C=C1\Sc2ccccc2C1=O | -1.89%
Cc1cc([N+](=O)[O-])nn1Cc1ccc(C(=O)N/N=C/c2ccccc2)cc1 | -10.3%
CCN(CC)CCCNc1oc(-c2ccccc2[N+](=O)[O-])nc1C#N | -3.83%
CN(C)CCCn1c(=O)n(Cc2ccccc2)c(=O)c2c3c(sc21)CCCCC3 | -58.9%
O=C(N/N=C/c1cccc([N+](=O)[O-])c1)c1ccncc1 | 3.11%
CCn1c(C)c(CS(=O)(=O)c2ccccc2)[nH]c1=O | 47.2%
CC(=O)c1ccccc1Oc1nc(CN2CCOCC2)nc2scc(-c3cccs3)c12 | -15.3%
CCN1CCN(c2cc(C)c3cc(NC(=O)CCC(=O)Nc4ccc(OC)cc4OC)ccc3n2)CC1 | 9.81%
COc1cccc(C(=O)N2c3ccccc3Sc3ccccc32)c1 | 0.0972%

SMILES | hERG current change (%, negative = inhibition) at 10uM
COc1ccc(CNS(=O)(=O)c2cc(-c3cc(C)no3)ccc2OC)cc1OC | 2.57%
COCCN(Cc1cc2cc3c(cc2nc1Cl)OCO3)C(=O)Nc1ccccc1OC | 16.3%
CCCC(=O)N=C1SC2CS(=O)(=O)CC2N1c1ccc(CC)cc1 (centres unmarked) | -10.5%
O=[N+]([O-])c1cccc(S(=O)(=O)N2CCCC2)c1 | -10.9%
CCCOc1ccc(C2C3=C(CCCC3=O)N(CC(=O)O)C3=C2C(=O)CCC3)cc1OCC | 14.8%
CCN=c1scc(-c2ccco2)n1/N=C/c1ccc(OC)c(O)c1 | -11.8%
O=C(COC(=O)C1(c2ccccc2F)CCCC1)N1CCN(C(=O)c2ccco2)CC1 | -17.9%
CCCSc1nc(C)c2cc(C)cc(C)c2n1 | 10.9%
COc1cc(C2=Nc3c(c(C)nn3-c3ccccc3)P(=O)(N3CCOCC3)O2)cc(OC)c1OC (centres unmarked) | 4.36%
COc1ccc(C(=O)Nc2ccc(NC(=O)c3cccs3)cc2)cc1[N+](=O)[O-] | 5.49%
Cn1c(=O)c(C(=O)CN2CCCCCC2)c(N)n(Cc2ccccc2)c1=O | -13.5%
CCN(CC)C(=O)CN1C(=O)C2(NC(=O)c3ccccc3N2)c2ccccc21 (centres unmarked) | 22.3%
Cc1ccc(NC(=O)c2ccc(NCCN)c([N+](=O)[O-])c2)cc1 | 0.857%
CC(=O)c1cccc(NC(=O)NC(C)C2CCCO2)c1 (centres unmarked) | 12.7%
CC(=O)Nc1cc2c(cc1NC(=O)c1cnccn1)OCCO2 | 26%
CC1(C(=O)NCc2cc(F)cc(C(F)(F)F)c2)C=CC2(CCCCC2)N1C(=O)c1ccccc1 (centres unmarked) | -1.31%
CSc1nc(-c2ccc(C)cc2)[nH]c1S(=O)(=O)c1ccccc1 | 1.2%
C1CNCCN1.COc1cc(C(O)CO)ccc1O (centres unmarked) | 3.97%
CCOC(=O)C(=N/O)/C(C)=N/NC(C)=O | 20.9%
O=S(=O)(Nc1ccccc1)c1cccc2nsnc12 | 16.5%
Cc1ccc(S(=O)(=O)NNC2=NCCCCC2)cc1 | 16%
CN(C)/C=C/C1=C([N+](=O)[O-])C(c2cccc([N+](=O)[O-])c2)NC(=O)N1 (centres unmarked) | -0.789%
